System: ovarian-55 (OV55) PDX
Assay: In vivo efficacy, PDX tumor growth
Parameters: species or system human tumor in NOD/SCID mice
Details: for tumor volume ± SEM: 3 mg/kg
Excerpt: The effects of anti-PTK7 antibody-drug conjugates were further evaluated on the in vivo growth of human tumor patient-derived xenografts (PDX). Primary tumor resection samples were procured from clinical sites following Institutional Review Board for the Protection of Human Subjects approval and in accordance with HIPAA regulations. Tumor fragments were stored and shipped in Hypothermasol (Biolife Solutions) on ice and were embedded in Matrigel (BD) containing a proprietary mix of growth factors and implanted subcutaneously into the mammary fatpad of female NOD/SCID mice within 24 hours of resection. Mice were monitored for health status daily and for tumor growth initially by visual inspection twice per week. Once the tumors were palpable, measurements of tumor volume began to track tumor growth and estimate cell doubling time. Tumor volume was estimated using the equation V=(A*B^2)/2 where A is the long axis and B is the short axis. When tumors reached a volume of 500 mm^3 to 1,500 mm^3, they were harvested for study and for re-transplant as a patient-derived xenograft (PDX). Depending on the line, mechanical and/or chemical dissociation can be used to separate the individual cells for passage. Live cells were inoculated into naïve animals with 10,000 to 50,000 cells per animals
For efficacy studies, tumors were harvested from passaging studies and cells were dissociated into single cell suspension. Preparations were counted for live cells using Trypan blue exclusion and 10,000 to 50,000 cells were inoculated per mouse in Matrigel. […] Tumor growth was initially followed by palpability with measurements beginning once tumor volumes reached about 30 mm^3. Studies were randomized based on tumor size once a cohort of tumor-bearing mice reached 140 mm^3 to 180 mm^3. Animals were dosed by intraperitoneal injection twice a week for two weeks (q4dx4). Study groups were followed until individual mice or entire group tumor measurements reached 1200 mm^3 when sacrifice was indicated in accordance with IACUC protocol. For selected dosing studies, pharmacokinetic submandibular bleeds were performed at 2 hours, 36 hours and 72 hours. A volume of 10 μL of blood was immediately pipetted into 90 μL of HBS-P (GE Healthcare). Samples were stored at −80° C. prior to analysis. For each tumor measurement the tumor volume±standard error of the mean (SEM) is provided. GT=Group Terminated due to large tumor size.

B1: hu24-vc0101: hu24 conjugated through cysteines to vc0101 linker-payload; average DAR approximately 4 (conjugate)
heavy: QVQLVQSGPEVKKPGASVKVSCKASGYTFTDYAVHWVRQAPGKRLEWIGVISTYNDYTYNNQDFKGRVTMTRDTSASTAYMELSRLRSEDTAVYYCARGNSYFYALDYWGQGTSVTVSS[letters of human IgG1 constant region omitted]
light: EIVLTQSPATLSLSPGERATLSCRASESVDSYGKSFMHWYQQKPGQAPRLLIYRASNLESGIPARFSGSGSGTDFTLTISSLEPEDFAVYYCQQSNEDPWTFGGGTKLEIKRTVAAPSVFIFPPSDEQLKSGTASVVCLLNNFYPREAKVQWKVDNALQSGNSQESVTEQDSKDSTYSLSSTLTLSKADYEKHKVYACEVTHQGLSSPVTKSFNRGEC
Day 0
  tumor volume ± SEM: 166 ± 8 mm^3
Day 14
  tumor volume ± SEM: 33 ± 6 mm^3
Day 35
  tumor volume ± SEM: 0 ± 0 mm^3
Day 42
  tumor volume ± SEM: 0 ± 0 mm^3
Day 49
  tumor volume ± SEM: 0 ± 0 mm^3
Day 77
  tumor volume ± SEM: 0 ± 0 mm^3
Day 84
  tumor volume ± SEM: 0 ± 0 mm^3
Day 133
  tumor volume ± SEM: 0 ± 0 mm^3
Day 168
  tumor volume ± SEM: 0 ± 0 mm^3
Day 182
  tumor volume ± SEM: 0 ± 0 mm^3
OV55 PDX model
  tumor status at end of experiment: tumor free when the experiment was terminated
